# The list shows a part of the results.
# B1: rEtpA (Escherichia coli) (protein)
# chain: MNRIYKLKFDKRRNELVVVSEITTGVGNAKATGSVEGEKSPRRGVRAMALSLLSGMMIMAHPAMSANLPTGGQIVAGSGSIQTPSGNQMNIHQNSQNMVANWNSFDIGKGNTVQFDQPSSSAVALNRVVGGGESQIMGNLKANGQVFLVNPNGVLFGEGASVSTSGFVASTRDIKNDDFMNRRYTFSGGQKAGAAIVNQGELTTNAGGYIVLAADRVSNSGTIRTPGGKTVLAASERITLQLDNGGLMSVQVTGDVVNALVENRGLVSARDGQVYLTALGRGMLMNTVLNVSGVVEASGMHRQDGNIVLDGGDSGVVHLSGTLQADNASGQGGKVVVQGKNILLDKGSNITATGGQGGGEVYVGGGWQGKDSNIRNADKVVMQGGARIDVSATQQGNGGTAVLWSDSYTNFHGQISAKGGETGGNGGRVETSSHGNLQAFGTVSASAKKGKAGNWLLDSADITIVNGSNVSKTETTQSPPHTQFAPTAAGSAVSNTSINNRLNNGTSVTILTHRTRTGTAQGGNITVNAAINKSNGSDVNLTLQAGGNITVNNSITSTEGKLNVNLSGARTSNGSITISNNANITTNGGDITVGTTNTSNRVNISINNTTLNASNGNIQLTGTGTDSGILFAGNNRLTASNIALTGNSTSGNAINLTGTATLNATNNITLTGSSTSGNAINLKGNNTLTASNITLTGESTSGNAINLTDTTGTTTLNATNNITMQGTRVQIKHSNITAGNFALNATVAGSEISNTTLTATNNINLAAKTNSASSGVYLKDARITSTNGSITANGTATANGKATHLDGNVTLNASNGRIKLTGNGHGSASGILFAGNNRLTASNIALTGNSTSGNAINLTGTATLNATNDITLTGSSTSGNAINLTGTATLNATNNITLTGSSTSGNAINLKGNNTLTASNITLTGESTSGNAINLTDTTGTTTLNATNNITMQGTRVQIKHSNITAGNFALNATVAGSEISNTTLTATNNINLAAKTNSASSGVYLKDARITSTNGSITANGTATANGKATHLDGNVTLNASNGRIKLTGNGHGSASGILFAGNNRLTASNIALTGNSTSGNAINLTGTATLNATNDITLTGSSTSGNAINLTGTATLNATNNITLTGSSTSGNAINLKGNNTLTASNITLTGESTSGNAINLTDTTGTTTLNATNNITMQGTRVQIKHSNITAGNFALNATVAGSEISNTTLTATNNINLAAKTNSASSGVYLKDARITSTNGSITANGTATANGKATHLDGNVTLNASNGRIKLTGNGHGSASGILFAGNNRLTASNIALTGNSTSGNAINLTGTATLNATNDITLTGSSTSGNAINLTGTATLNATNNITLTGSSTSGNAINLKGNNTLTASNITLTGESTSGNAINLTDTTGTTTLNATNNITMQGTRVQIKHSNITAGNFALNATVAGSEISNTTLTATNNINLAAKTNSASSGVYLKDARITSTNGSITTNGTATANGKATHLDGNVTLNASNGRIKLTGNGHGSASGILFAGNNRLTASNIALTGNSTSGNAINLTGTATLNATNDITLTGSSTSGNAINLTGTATLNATNNITLTGSSTSGNAINLKGNNTLTASNITLTGESTSGNAINLTDTTGTTTLNATNNITMQGTRVQIKHSNITAGNFALNATVAGSEISNTTLTATNNINLAAKTNSASSGVYLKDARITSTNGSITANGTAPANDNATYLDGNVTLNASNGSIKLTGNGNGSTSGILFAGNNTLTASNITLTGNSEVYWQKLGPEQKLISEEDLNSAVDHHHHHH
# What was measured:
# Assay in all cases: glycan array binding signal (z-score within array); higher = stronger binding
# Conditions in all cases: glycan notation: IUPAC condensed, linker removed
# [1] = target: Neu5Ac(a2-6)Gal(b1-4)GlcNAc(b1-2)Man(a1-3)[Man(a1-6)]Man(b1-4)GlcNAc(b1-4)GlcNAc
# How it was run: (§1)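 Arrays were curated from the Consortium for Functional Glycomics database, 3228 in total, and kept only where the protein sequence was available. Binding is expressed as a within-array Z-score. This score was averaged across arrays of the same protein sequence at different concentrations or buffers and across linkers, and negative values can be read as non-binding.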
# [2] = target: Neu5Ac(a2-6)Gal(b1-4)GlcNAc(b1-2)Man(a1-3)[Neu5Ac(a2-3)Gal(b1-4)GlcNAc(b1-2)Man(a1-6)]Man(b1-4)GlcNAc(b1-4)GlcNAc
# How it was run: as §1
# [3] = target: Neu5Ac(a2-6)Gal(b1-4)GlcNAc(b1-2)Man(a1-3)[Neu5Ac(a2-6)Gal(b1-4)GlcNAc(b1-2)Man(a1-6)]Man(b1-4)GlcNAc(b1-4)GlcNAc
# How it was run: as §1
# [4] = target: Neu5Ac(a2-6)Gal(b1-4)GlcNAc(b1-2)Man(a1-3)[Neu5Ac(a2-6)Gal(b1-4)GlcNAc(b1-2)Man(a1-6)]Man(b1-4)GlcNAc(b1-4)[Fuc(a1-6)]GlcNAc
# How it was run: as §1
# [5] = target: Neu5Ac(a2-6)Gal(b1-4)GlcNAc(b1-2)Man(a1-6)Man(b1-4)GlcNAc(b1-4)GlcNAc
# How it was run: as §1
# [6] = target: Neu5Ac(a2-6)Gal(b1-4)GlcNAc(b1-2)Man(a1-6)[Gal(b1-4)GlcNAc(b1-2)Man(a1-3)]Man(b1-4)GlcNAc(b1-4)GlcNAc
# How it was run: as §1
# [7] = target: Neu5Ac(a2-6)Gal(b1-4)GlcNAc(b1-2)Man(a1-6)[GlcNAc(b1-2)Man(a1-3)]Man(b1-4)GlcNAc(b1-4)GlcNAc
# How it was run: as §1
# [8] = target: Neu5Ac(a2-6)Gal(b1-4)GlcNAc(b1-2)Man(a1-6)[Man(a1-3)]Man(b1-4)GlcNAc(b1-4)GlcNAc
# How it was run: as §1
# [9] = target: Neu5Ac(a2-6)Gal(b1-4)GlcNAc(b1-2)[Neu5Ac(a2-6)Gal(b1-4)GlcNAc(b1-4)]Man(a1-3)[GlcNAc(b1-4)][Neu5Ac(a2-6)Gal(b1-4)GlcNAc(b1-2)[Neu5Ac(a2-6)Gal(b1-4)GlcNAc(b1-6)]Man(a1-6)]Man(b1-4)GlcNAc(b1-4)GlcNAc
# How it was run: as §1
# [10] = target: Neu5Ac(a2-6)Gal(b1-4)GlcNAc(b1-2)[Neu5Ac(a2-6)Gal(b1-4)GlcNAc(b1-4)]Man(a1-3)[GlcNAc(b1-4)][Neu5Ac(a2-6)Gal(b1-4)GlcNAc(b1-4)Man(a1-6)]Man(b1-4)GlcNAc(b1-4)GlcNAc
# How it was run: as §1
# [11] = target: Neu5Ac(a2-6)Gal(b1-4)GlcNAc(b1-2)[Neu5Ac(a2-6)Gal(b1-4)GlcNAc(b1-6)]Man(a1-6)[Neu5Ac(a2-6)Gal(b1-4)GlcNAc(b1-2)Man(a1-3)][GlcNAc(b1-4)]Man(b1-4)GlcNAc(b1-4)GlcNAc
# How it was run: as §1
# [12] = target: Neu5Ac(a2-6)Gal(b1-4)GlcNAc(b1-3)Gal(b1-3)GlcNAc
# How it was run: as §1
# [13] = target: Neu5Ac(a2-6)Gal(b1-4)GlcNAc(b1-3)Gal(b1-4)GlcNAc
# How it was run: as §1
# [14] = target: Neu5Ac(a2-6)Gal(b1-4)GlcNAc(b1-3)Gal(b1-4)GlcNAc(b1-2)Man(a1-3)[Neu5Ac(a2-6)Gal(b1-4)GlcNAc(b1-3)Gal(b1-4)GlcNAc(b1-2)Man(a1-6)]GalNAc
# How it was run: as §1
# [15] = target: Neu5Ac(a2-6)Gal(b1-4)GlcNAc(b1-3)Gal(b1-4)GlcNAc(b1-3)Gal(b1-4)GlcNAc
# How it was run: as §1
# [16] = target: Neu5Ac(a2-6)Gal(b1-4)GlcNAc(b1-3)Gal(b1-4)GlcNAc(b1-3)Gal(b1-4)GlcNAc(b1-2)Man(a1-3)[Neu5Ac(a2-6)Gal(b1-4)GlcNAc(b1-3)Gal(b1-4)GlcNAc(b1-3)Gal(b1-4)GlcNAc(b1-2)Man(a1-6)]GalNAc
# How it was run: as §1
# [17] = target: Neu5Ac(a2-6)Gal(b1-4)GlcNAc(b1-3)Gal(b1-4)GlcNAc(b1-3)GalNAc
# How it was run: as §1
# [18] = target: Neu5Ac(a2-6)Gal(b1-4)GlcNAc(b1-3)Gal(b1-4)GlcNAc(b1-3)[Neu5Ac(a2-6)Gal(b1-4)GlcNAc(b1-3)Gal(b1-4)GlcNAc(b1-6)]GalNAc
# How it was run: as §1
# [19] = target: Neu5Ac(a2-6)Gal(b1-4)GlcNAc(b1-3)Gal(b1-4)GlcNAc(b1-6)[Gal(b1-3)]GalNAc
# How it was run: as §1
# [20] = target: Neu5Ac(a2-6)Gal(b1-4)GlcNAc(b1-3)Gal(b1-4)[Fuc(a1-3)]GlcNAc(b1-3)Gal(b1-4)[Fuc(a1-3)]GlcNAc
# How it was run: as §1
# [21] = target: Neu5Ac(a2-6)Gal(b1-4)GlcNAc(b1-3)GalNAc
# How it was run: as §1
# [22] = target: Neu5Ac(a2-6)Gal(b1-4)GlcNAc(b1-3)[Neu5Ac(a2-6)Gal(b1-4)GlcNAc(b1-6)]GalNAc
# How it was run: as §1
# [23] = target: Neu5Ac(a2-6)Gal(b1-4)GlcNAc(b1-6)GalNAc
# How it was run: as §1
# [24] = target: Neu5Ac(a2-6)Gal(b1-4)GlcNAc(b1-6)[Gal(b1-3)GlcNAc(b1-3)]Gal(b1-4)Glc
# How it was run: as §1
# [25] = target: Neu5Ac(a2-6)Gal(b1-4)GlcNAc(b1-6)[Gal(b1-3)]GalNAc
# How it was run: as §1
# [26] = target: Neu5Ac(a2-6)Gal(b1-4)GlcNAc6S
# How it was run: as §1
# Neu5Ac(a2-6)GalNAc = target: Neu5Ac(a2-6)GalNAc
# How it was run: as §1
# [27] = target: Neu5Ac(a2-6)GalNAc(b1-4)GlcNAc
# How it was run: as §1
# [28] = target: Neu5Ac(a2-6)GalNAc(b1-4)GlcNAc6S
# How it was run: as §1
# [29] = target: Neu5Ac(a2-6)GlcNAc(b1-4)GlcNAc
# How it was run: as §1
# [30] = target: Neu5Ac(a2-6)GlcNAc(b1-4)GlcNAc(b1-4)GlcNAc
# How it was run: as §1
binder,measurement,setting,value
B1,glycan array binding signal (z-score),[1],0.13
same,glycan array binding signal (z-score),[2],-0.347
same,glycan array binding signal (z-score),[3],-0.353
same,glycan array binding signal (z-score),[4],-0.306
same,glycan array binding signal (z-score),[5],0.277
same,glycan array binding signal (z-score),[6],-0.105
same,glycan array binding signal (z-score),[7],-0.361
same,glycan array binding signal (z-score),[8],-0.06
same,glycan array binding signal (z-score),[9],-0.271
same,glycan array binding signal (z-score),[10],-0.063
same,glycan array binding signal (z-score),[11],-0.021
same,glycan array binding signal (z-score),[12],-0.361
same,glycan array binding signal (z-score),[13],-0.418
same,glycan array binding signal (z-score),[14],-0.38
same,glycan array binding signal (z-score),[15],-0.428
same,glycan array binding signal (z-score),[16],-0.152
same,glycan array binding signal (z-score),[17],-0.379
same,glycan array binding signal (z-score),[18],-0.373
same,glycan array binding signal (z-score),[19],-0.333
same,glycan array binding signal (z-score),[20],-0.276
same,glycan array binding signal (z-score),[21],-0.267
same,glycan array binding signal (z-score),[22],-0.153
same,glycan array binding signal (z-score),[23],-0.19
same,glycan array binding signal (z-score),[24],-0.399
same,glycan array binding signal (z-score),[25],-0.332
same,glycan array binding signal (z-score),[26],-0.451
same,glycan array binding signal (z-score),Neu5Ac(a2-6)GalNAc,-0.37
same,glycan array binding signal (z-score),[27],-0.424
same,glycan array binding signal (z-score),[28],-0.282
same,glycan array binding signal (z-score),[29],-0.251
same,glycan array binding signal (z-score),[30],-0.362
